PubChem BioAssay AID1508642 (National Center for Advancing Translational Sciences (NCATS), 2021)
Among all 43,000 compounds or so, about 200 (0.47%) were called active. Not shown: some 12% with an inconclusive outcome. Calls follow the shape of the dose curve; as a rule, active = well fitted cell-killing curve with a large enough effect; inconclusive = small, poorly fitted or top-dose-only effect, or effect the other way; inactive = flat fitted curve, though single readings scatter. The list shows a part of the results.

Test: Cell viability qHTS assay in S16 Pmp22-F2sN cells; also: nearly all actives have a fitted effect of over 65% in size
Details: S16 Pmp22-F2sN Schwann cells viability, CellTiter-Glo, 24 h; series mostly up to 57.5 µM; activity change, negative = cytotoxicity: at the top concentration
Method in brief: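 Viability was measured by CellTiter-Glo luminescence (15 min, room temperature). This followed 24 h at 37 °C of compound exposure (23 nL pin transfer) in S16 Pmp22-F2sN Schwann cells, 500-1,000 per well.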
% is scaled to controls: 0 for no effect and ±100 for the full control effect.

| SMILES | activity change, negative = cytotoxicity |
| --- | --- |
| Cc1ccn2c(=O)c(C(=O)NC(C)c3ccccc3)c(O)nc2c1 (configuration not stated) | inactive: 5.76% |
| CCOc1ccccc1CNC(=O)c1cccn1-c1nnc(N2CCCCC2)s1 | inactive: -8.57% |
| Cc1ccc2c(=O)cc(C(=O)Nc3ccc(S(=O)(=O)N(C)Cc4ccccc4)cc3)oc2c1 | inactive: -2.32% |
| CCN(CC)S(=O)(=O)c1ccc2c(c1)c(=O)c(C(=O)N1CCN(c3cccc(C)c3)C(C)C1)cn2C (configuration not stated) | inactive: -2.39% |
| Cc1ccc(CNC(=O)CN(c2ccc(C)cc2)S(=O)(=O)c2c(C)nn(C)c2C)cc1 | inactive: -1.32% |
| O=C(Nc1nnc(S(=O)(=O)N2CCCc3ccccc32)s1)c1ccccc1 | inactive: -1.46% |
| COC(=O)c1cnn2c(C)c(Cc3c(C)cc(C)cc3C)c(C)nc12 | inactive: -9.93% |
| COc1ccc(NC(=O)CCn2c(=O)c3cccn3c3ccccc32)c(OC)c1 | inactive: -0.739% |
| CCC1CN(C(=O)Nc2cccc3c2CCCC3)c2ccccc2O1 (configuration not stated) | inactive: -23% |
| COc1ccc(N2CC(NC(=O)C3CC3)CC2=O)cc1OC (configuration not stated) | inactive: -2.58% |
| CC(=O)c1ccc(NC(=O)CN(C)S(=O)(=O)c2cccc3nsnc23)cc1 | inactive: -0.898% |
| CCCCn1c(C(C)NC(=O)c2ccccc2)nc2ccccc21 (configuration not stated) | inactive: 5.89% |
| COC(=O)c1c(NC(=O)CS(=O)(=O)c2ccc(C)cc2)sc2c1CCCC2 | inactive: -13.2% |
| Cc1ccc2oc(=O)c3cnn(CC(=O)N4CCN(c5ccccc5)CC4)c3c2c1 | inactive: 0.393% |
| O=C(Nc1ccc(F)cc1F)c1cc2nc(-c3ccco3)cc(C(F)(F)Cl)n2n1 | inactive: -17.9% |
| Cc1cc(NC(=O)CCNS(=O)(=O)c2ccc3c(c2)oc(=O)n3C)ccc1Br | inactive: -14.3% |
| CCN(C(=O)Cn1nnc2sc(-c3ccccc3)cc2c1=O)c1cccc(C)c1 | inactive: 8.64% |
| CCN(CC)C(=O)c1cc(-c2ccc(Cl)cc2)on1 | inactive: 8.35% |
| CCC(C)NC(=O)CSc1nc2n[nH]c(C)c2c(=N)n1-c1ccc(C)c(Cl)c1 (configuration not stated) | inactive: -4.97% |
| CCc1nn2c(=O)cc(COC(=O)c3ccccc3NC(=O)C3CCCCC3)nc2s1 | inactive: 14.3% |
| CCc1ccccc1NC(=O)CCc1c(C)nn(-c2ccc(N3CCOCC3)nn2)c1C | inactive: -1.6% |

| SMILES | activity change, negative = cytotoxicity |
| --- | --- |
| O=C(c1ccc(F)cc1)n1nc(-c2ccccc2)nc1NCc1ccc(F)cc1 | inactive: 18.4% |
| CCc1ccc(CNCc2c(C(=O)O)n(Cc3ccc(F)cc3Cl)c3cc(OC)ccc23)cc1 | inactive: -0.079% |
| CCOC(=O)c1c(SCC(=O)Nc2cc(Cl)cc(Cl)c2)nc(=O)[nH]c1C | inactive: 2.82% |
| COc1cc(CCC(=O)NCc2ccc3c(c2)CCN3C(=O)c2ccc(F)cc2)cc(OC)c1OC | inactive: 0.76% |
| Cc1ccc2nc(NCc3ccc(F)cc3)c3nncn3c2c1 | inactive: -19.3% |
| Cc1nc(-c2ccc(S(=O)(=O)NCc3ccc(N(C)C)cc3)cc2)co1 | inactive: -1.96% |
| Cc1cccc(-n2ncc3c(N4CCN(c5ccccc5)CC4)ncnc32)c1 | inactive: -1.27% |
| CCN(CC)c1ccc(NC(=O)Cn2nc(C)n3cccc3c2=O)c(C)c1 | inactive: -2.43% |
| CCCCNC(=O)C1CCC(CNS(=O)(=O)c2ccc(NC(C)=O)cc2)CC1 (configuration not stated) | inactive: 0.887% |
| COc1ccc(-c2nc3c(c(SCC(=O)N(C)c4ccccc4)n2)Cc2cc(C)ccc2O3)cc1 | inactive: 11.4% |
| COc1ccc2ncc3c(-c4ccc(C)c(C)c4)nn(CC(=O)NC4CCCC4)c3c2c1 | inactive: -13.7% |
| O=C(Nc1cccc(C(=O)OCc2cc(=O)n3c4c(sc3n2)CCCC4)c1)c1ccccc1 | inactive: -4.24% |
| Cc1cccc(NC(=O)C(NS(=O)(=O)c2ccc3c(c2)oc(=O)n3C)C(C)C)c1 (configuration not stated) | inactive: 1.95% |
| O=c1c(S(=O)(=O)c2cccc(Cl)c2)cn(Cc2ccccc2)c2cc(N3CCOCC3)c(F)cc12 | inactive: -1.75% |
| CC(C)c1ccc(OCC(=O)N(Cc2ccc(N(C)C)cc2)C2CCS(=O)(=O)C2)cc1 (configuration not stated) | inactive: -10.5% |
| CCc1ccc(NC(=O)Cn2c(=O)n(Cc3ccco3)c(=O)c3cccnc32)cc1 | inactive: -1.03% |
| CCCNC(=O)CCSc1nc(-c2ccc3c(c2)OCO3)cc(C(F)(F)F)n1 | inactive: 13.7% |
| Cc1cc(C)c2nc(N(Cc3cccnc3)C(=O)CCOc3ccccc3)sc2c1 | inactive: 3.6% |
| Cc1ccc2nc(-c3cccnc3)c(Nc3ccccc3C)n2c1 | inactive: -12.8% |
| Cc1ccc(C2c3[nH]c4ccccc4c3CCN2C(=O)CCC2CCCC2)cc1 (configuration not stated) | inactive: -0.126% |
| COc1ccc(NC(=O)CCc2nnc3n(CC(C)C)c(=O)c4ccccc4n23)cc1 | inactive: 8.01% |

| SMILES | activity change, negative = cytotoxicity |
| --- | --- |
| Cc1ccc(-n2nc(C(=O)N3CCN(c4cc(Cl)ccc4C)CC3)c3c4ccccc4n(C)c3c2=O)cc1 | inactive: -5.86% |
| O=C(c1ccc(CSc2nc3ccncc3n2Cc2ccccc2)cc1)N1CCCCCC1 | inactive: -26.3% |
| Cc1ccc(NC(=O)Cn2ccn(-c3ccc(F)c(F)c3)c(=O)c2=O)cc1C | inactive: 3.58% |
| COC(=O)c1cc(NC(=O)c2nn(C)c3c2COc2ccccc2-3)cc(C(=O)OC)c1 | inactive: 6.37% |
| Nc1c(C(=O)Nc2ccc(F)c(F)c2)sc2nc(-c3ccncc3)ccc12 | inactive: 3.32% |
| COc1cccc(CNC(=O)c2cc(C)nc3c2c(C)nn3-c2cccc(F)c2)c1 | inactive: -23.1% |
| CCOC(=O)c1ccc(NC(=O)Nc2cc3c(cc2N2CCCC2)n(C)c(=O)n3C)cc1 | inactive: 1.8% |
| Cc1ccc(S(=O)(=O)NCCc2cn3ccsc3n2)cc1 | inactive: 14.6% |
| CCC(CC)C(=O)Nc1nc2c(s1)CC(C)CC2 (configuration not stated) | inactive: -3.09% |
| COc1ccc(-n2nnnc2C2CCN(S(=O)(=O)c3ccc(C(C)(C)C)cc3)CC2)cc1 | inactive: -0.186% |
| O=C(COCc1cc(-c2ccc3c(c2)OCO3)on1)N1CCN(c2ccccc2)CC1 | inactive: -20.2% |
| Cc1cc2c(cc3c(SCc4nc(-c5ccccc5)oc4C)nnc(C)n32)o1 | inactive: -3.66% |
| Cc1ccc(N2CCN(S(=O)(=O)c3ccc(F)c(C(=O)Nc4ccc(Cl)cc4Cl)c3)CC2C)cc1 (configuration not stated) | inactive: 1.5% |
| Cc1cc(C)cc(NC(=O)Cn2nnc(-c3nc(-c4ccncc4)no3)c2N)c1 | inactive: 3.13% |
| CCn1ccc2c(OCC(=O)Nc3ccccc3C)cccc2c1=O | inactive: -9.11% |
| CC(=O)c1ccc(NC(=O)c2ccc(-c3nc(CSc4ccccc4)c(C)o3)cc2)cc1 | inactive: 19.4% |
| Fc1ccc(-c2noc3ncnc(NCC4CCN(Cc5ccc(Cl)cc5)CC4)c23)cc1 | inactive: -27.9% |
| Cc1ccc2cc3c(N)nn(C(=O)c4cccc(F)c4)c3nc2c1 | inactive: 17.6% |
| Cc1ccc(CNC(=O)c2nnn(CC(=O)Nc3cc(C)ccc3C)c2N)cc1 | inactive: -1.65% |
| COc1ccc(CCNC(=O)c2cnc3sc(N4CCCC4)nn3c2=O)cc1OC | inactive: -0.0225% |
